# Results taken from the supplement of paper PMC10369915.
# The other results are listed elsewhere or left out. Cut-off read from the data, not from the text of the source: active = 3.2 or more and inactive = the rest. The signal is at background level for most entries.
# How the values were obtained:
# Assay in all cases: enrichment score (SH2-bound / input frequency) (ratio); bacterial display of known human phosphotyrosine sites (pTyr-Var adds point mutants) read by sequencing; higher = stronger binding; tyrosines were phosphorylated by kinases first
# Conditions in all cases: peptide library: pTyr-Var
# SHP2 C-SH2 domain E139D = biological target: SHP2 C-SH2 domain E139D
# [1] = biological target: SHP2 C-SH2 domain wild-type
# SHP2 N-SH2 domain L43F = biological target: SHP2 N-SH2 domain L43F
# SHP2 N-SH2 domain T42A = biological target: SHP2 N-SH2 domain T42A
# SHP2 N-SH2 domain T52S = biological target: SHP2 N-SH2 domain T52S
# [2] = biological target: SHP2 N-SH2 domain wild-type
# 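Note: displayed peptides selected on beads carrying the immobilized SH2 domain, with library peptides lacking any tyrosine serving as negative controls.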
Binder,enrichment score (SHP2 C-SH2 domain E139D),enrichment score [1],enrichment score (SHP2 N-SH2 domain L43F),enrichment score (SHP2 N-SH2 domain T42A),enrichment score (SHP2 N-SH2 domain T52S),enrichment score [2]
STEAIYWRFSK [SH3PXD2B_Y42_R43W_YF],inactive: 0.745,inactive: 0.718,inactive: 0.702,inactive: 0.952,inactive: 0.724,inactive: 0.907
STEAIYRRFSK [SH3PXD2B_Y42_YF],inactive: 0.179,inactive: 0.124,inactive: 0.147,inactive: 0.0515,inactive: 0.211,inactive: 0.341
LRSKQYLRNPP [SHC1_Y315_F312S],inactive: 0.69,inactive: 0.487,inactive: 0.474,inactive: 0.493,inactive: 0.466,inactive: 0.49
AKKVFYVIETR [SHH_Y253],inactive: 2.13,inactive: 2.07,inactive: 2.04,inactive: 1.93,inactive: 2.41,inactive: 2.12
LFRFGYANTSE [SI_Y1233_C1229Y_YF],inactive: 1.93,inactive: 1.13,inactive: 1.65,inactive: 1.52,inactive: 1.63,inactive: 1.3
ALVFLSFCIIF [SIGLEC12_Y494_Y494S],inactive: 1.13,inactive: 0.984,inactive: 1.02,inactive: 0.896,inactive: 1.02,inactive: 1.1
SQSKGYRPKLY [SIPA1L3_Y1376_G1371S],inactive: 0.417,inactive: 0.534,inactive: 0.526,inactive: 0.422,inactive: 0.386,inactive: 0.318
PSFSEYASVQV [SIRPA_Y496],inactive: 0.962,inactive: 1.08,inactive: 0.857,inactive: 0.837,inactive: 1.28,inactive: 0.825
LLREWYLQDPY [SIX3_Y225],inactive: 2.01,inactive: 2.08,inactive: 2.01,inactive: 1.81,inactive: 2.1,inactive: 2.03
LLREWYVQDPY [SIX3_Y225_L226V],inactive: 1.81,inactive: 1.69,inactive: 1.58,inactive: 1.66,inactive: 2.16,inactive: 1.9
EHFSFYGMKAV [SLC15A2_Y61_R57H_YF],inactive: 0.839,inactive: 0.802,inactive: 0.668,inactive: 0.764,inactive: 0.946,inactive: 0.964
FGSVMYEFVGK [SLC18A1_Y251],inactive: 1.56,inactive: 1.32,inactive: 1.17,inactive: 0.929,inactive: 1.26,inactive: 1.55
LRFDSYSSFCN [SLC20A2_Y433_YF],inactive: 0.818,inactive: 0.883,inactive: 0.981,inactive: 0.809,inactive: 0.658,inactive: 0.831
DSYSSYCNAVA [SLC20A2_Y436],inactive: 0.794,inactive: 0.708,inactive: 0.556,inactive: 0.499,inactive: 0.635,inactive: 0.438
DSFWSYCNAVA [SLC20A2_Y436_S434W_YF],inactive: 0.792,inactive: 0.964,inactive: 0.816,inactive: 0.711,inactive: 0.822,inactive: 1.04
VYLGAYDHFLP [SLC22A5_Y486_R488H],inactive: 1.77,active: 3.52,inactive: 1.47,inactive: 2.3,inactive: 1.75,inactive: 1.64
IYLGAYDRFLP [SLC22A5_Y486_V481I],inactive: 1.73,inactive: 1.95,inactive: 1.61,inactive: 1.85,inactive: 1.48,inactive: 1.11
IYRAAYFGVYD [SLC25A4_Y191],inactive: 0.972,inactive: 1.03,inactive: 1.03,inactive: 0.8,inactive: 0.887,inactive: 1.03
